Experimental data from PubChem BioAssay AID1362 (SRMLSC, 2008).
This is one part of the list. The main result of the screen is listed elsewhere. These columns were measured beside it and carry no call. Compounds called inactive in the main read-out are mostly missing here.

assay: growth inhibition of WT strain, primary screen, mitochondrial fusion inhibitor project, WT and mutant strains, chemical genetic (AID 1362); conditions: mitochondrial fusion phenotypic screen, at 10 µM; also: tested in S. cerevisiae

| Compound | inhibition |
| --- | --- |
| CC1(C(=O)OCC(=O)c2c[nH]c3ccccc23)CC1(Cl)Cl (centres undefined) | -13.4% |
| CN1CCN(C2=Cc3ccccc3Sc3cc(F)ccc32)CC1 | 92.9% |
| S=C(Nc1cccc2ccccc12)NC1CCCCC1 | 28.9% |
| CCCCn1c(-c2csc3c2CCC(C)C3)n[nH]c1=S (centres undefined) | 42% |
| Cc1ccc(OCCSc2nc(NC(C)C)nc(NC(C)C)n2)cc1 | 14.2% |
| S=C(NCCSCc1ccc(Cl)cc1)Nc1ccccc1 | 63.5% |
| COc1ccc(C(C)C)cc1S(=O)(=O)N1CCN(c2ccccc2)CC1 | 33.4% |
| COCCN1CCN(c2cc(-c3ccccc3)nc3cc(-c4cccc(F)c4)nn23)CC1 | 67.6% |
| S=C(Nc1ccccc1Oc1ccccc1)Nc1cccc(Cl)c1Cl | 3.27% |
| Cc1cccc(NC(=S)NC(C)(C)CC(C)(C)C)c1 | 63.3% |
| Cc1nc2cc(-c3ccc(Cl)cc3)nn2c(C)c1CCC(=O)NC(C)c1ccc2c(c1)OCCO2 (centres undefined) | 65.9% |
| Cc1onc(-c2ccccc2)c1C(=O)N/N=C/C(Br)=C/c1ccccc1 | 52.4% |
| CCC(C(=O)Nc1ccc(OC)c(Cl)c1)c1ccccc1 (centres undefined) | 48.7% |
| O=C1c2ccccc2-n2c1nc1ccccc1c2=O | 57.8% |
| CC(=O)c1ccc(NC(=S)Nc2ccc(Br)c(Cl)c2)cc1 | 69.2% |
| Cc1cccc(NC(=S)N=Nc2c(O)[nH]c3ccccc23)c1 | -9.88% |
| COc1ccc(CN(C)C2c3ccccc3-c3ccccc32)cc1 | 7.13% |
| CCOC(=O)C1CCN(CC(=O)Nc2cc(C)nn2-c2nc3ccccc3s2)CC1 | 8.2% |
| Cc1cc(NCCC(C)C)n2nc(C)c(-c3ccccc3)c2n1 | 35.6% |
| CC(C)(C)c1ccc(C(=O)N/N=C2\C3CN4CCN(C3)CC2(c2ccccc2)C4)cc1 | 95% |
| COc1ccc(NC(=O)CN(c2ccc(C)cc2)S(C)(=O)=O)c(OC)c1 | 4.28% |
| CCOC(=O)c1cc(-c2ccc3c(c2)OCO3)nc2onc(C)c12 | -9.81% |
| O=C(CCSc1nc(-c2ccco2)cc(C(F)(F)F)n1)N1CCN(c2ccccc2)CC1 | 35% |
| On1c(-c2ccc(Cl)cc2)nc2ccccc21 | 73.3% |
| CCCc1cc(-c2n[nH]c(=S)n2CC(C)C)cs1 | 52.4% |

| Compound | inhibition |
| --- | --- |
| CC1=NN(C(N)=S)C(=O)C1N=Nc1ccccc1C (centres undefined) | 55.1% |
| Cc1ccc(-n2cc(CN(C)Cc3ncc[nH]3)c(-c3cccc(C)c3)n2)cc1 | 40.1% |
| CC(C)(C)CC(C)(C)NC(=O)CSCC(=O)Nc1ccc2ccccc2c1 | 57.2% |
| CN1CCC2(CC1)Nc1nc(SCc3ccc(Cl)cc3)nn1C1=C2CN(C)CC1 | 4.66% |
| O=C(CSC1=NC2(CCCCCC2)N=C1c1ccccc1)Nc1ccc2c(c1)OCCO2 | 24.6% |
| CC(C)COC(=O)c1cccc2c1-c1ccccc1/C2=N\O | -1.4% |
| Clc1nssc1=Nc1ccc(Br)cc1 | 67.4% |
| Cc1cc(NC(=O)C2CCCCC2)nc2c1c(=O)oc1ccccc12 | 12.9% |
| COc1ccccc1C1CN(c2ccc(F)cc2F)N=C1c1cccs1 (centres undefined) | 35.8% |
| CNc1oc(C)nc1S(=O)(=O)c1ccc(C)cc1 | -15.8% |
| COc1ccc(/C=N/NC(N)=S)cc1OC(=O)c1cccc2ccccc12 | 26.3% |
| CC(C)c1ccccc1OCC(=O)NC1CCCc2ccccc21 (centres undefined) | -16.8% |
| Clc1cccc(-c2cc3nc4c(c(N5CCOCC5)n3n2)CCCC4)c1 | 68% |
| c1ccc2c(c1)sc1nnnn12 | -1.46% |
| O=C(Nc1ccc(Cl)c(Cl)c1)Nc1ccc(Br)cc1F | 66.1% |
| Fc1ccc2c(c1)/C(=N/Nc1ccccn1)CCS2 | 48.2% |
| Cc1ccn2cc(CSc3ccccc3)nc2c1 | 58.4% |
| COc1ccc(OCC(O)CNCc2ccco2)cc1 (centres undefined) | -3.7% |
| Cc1cccc(C(=O)NC(=S)NNC(=O)COc2ccc(Cl)cc2)c1 | 64% |
| CC(=O)C1=C(c2cccc([N+](=O)[O-])c2)N(C(C)=O)n2c(C)nnc2S1 | 37.7% |
| COc1cc2c(cc1NS(=O)(=O)N1CCCCC1)oc1ccccc12 | 54.4% |
| Cc1c(Cl)cccc1NC(=S)N(Cc1cccs1)C1CCCC1 | 37.6% |
| CCCCCOc1ccc(CSCCNC(=S)Nc2ccccc2)cc1 | 5% |
| Cc1ccc(C(=O)NC(=S)NCC(=O)c2ccccc2)cc1 | 0.51% |
| S=c1[nH]nc(COc2ccccc2)n1/N=C/C(Cl)=C/c1ccccc1 | 39.2% |

| Compound | inhibition |
| --- | --- |
| CCc1ccc(CCC(=O)Nc2ccccc2C(=O)O)o1 | 3.76% |
| CC(C)(C)c1ccc(OCCNC(=S)Nc2ccccc2)cc1 | 48.2% |
| Cc1cc(N2CCCCC2)n2ncc(-c3ccc(Cl)cc3)c2n1 | 33.6% |
| Oc1ccccc1Nc1nc(NCc2ccccc2)c2ccccc2n1 | 68.3% |
| COCCCn1c(SCC(=O)NC(C)(C)C)nnc1-c1ccccc1 | -3.73% |
| CC1=NN(C(N)=S)C(=O)C1N=Nc1ccc(C)cc1C (centres undefined) | 59.5% |
| CCCC1CC(C)(c2csc(Nc3ccc(OCC)cc3)n2)OC1=O (centres undefined) | 31.7% |
| CC(C)(C)c1ccc(OCc2ccc(C(=O)N/N=C3\CC4CC=CC34)cc2)cc1 (centres undefined) | 42.8% |
| CCCN(Cc1ccccc1)C(=S)Nc1ccc(SC(F)F)cc1 | 19.6% |
| CCOC(=O)c1c(NC(=O)CN2CCN(C(=O)c3ccco3)CC2)sc2c1CCCC2 | 8.35% |
| NC(=S)N/N=C1/CCSc2ccc3ccccc3c21 | 38.3% |
| CCOC(=O)c1sc(NC(=O)Nc2cccc(Cl)c2)cc1C | 16% |
| OCCN1CCN(CCCN2c3ccccc3Sc3ccc(Cl)cc32)CC1 | 87.4% |
| Cc1[nH]n(C(N)=S)c(=O)c1N=Nc1ccc2ccccc2c1 | 59.4% |
| COc1ccc(/C=N/NC(=O)c2ccoc2C)cc1COc1c(C)cccc1C | 81.2% |
| NC(=S)N/N=C/c1ccc(-c2ccc(Cl)c(Cl)c2)o1 | 60.8% |
| COc1ccc(OC)c(NC(=O)COC(=O)Cc2ccc(Br)cc2)c1 | 11.8% |
| Fc1ccccc1C1c2cccn2CCN1C(=S)Nc1cccc(Br)c1 (centres undefined) | 46.1% |
| CC1CCN(S(=O)(=O)c2ccc(N/N=C(/C#N)C(N)=O)cc2)CC1 | -1.68% |
| CCOP(=O)(OCC)c1nc(-c2cccc3ccccc23)oc1NCCc1ccc(OC)cc1 | 31.5% |
| O=C(NCCc1ccc(Cl)cc1)c1ncn[nH]1 | 37.5% |
| N/C(=N\OC(=O)C12CC3CC(CC(C3)C1)C2)c1ccccc1 | 69.6% |
| CC1=[N+](C)c2ccc3ccccc3c2C1(C)C | 46.8% |
| O=C(OCc1cc(Cl)ccc1OC(F)F)c1cncc(Br)c1 | 32.9% |
